Laboratory results taken from US9809653B2, “Anti-LAMP1 antibodies and antibody drug conjugates, and uses thereof” (SANOFI, priority 2012, dated 2017).

Key:
[1] = biological target: T1, recombinant human LAMP1 (29-382 of SEQ ID NO: 28) (Homo sapiens, UniProt P11279); test: ELISA on recombinant human LAMP1; assay type: binding; conditions: chimer and humanized mAbs (Table 27)
T1 construct: made in house; host or cells: HEK293 (293-F), transient expression, IMAC-purified
T1 sequence (P11279 with tags, fused parts or gaps): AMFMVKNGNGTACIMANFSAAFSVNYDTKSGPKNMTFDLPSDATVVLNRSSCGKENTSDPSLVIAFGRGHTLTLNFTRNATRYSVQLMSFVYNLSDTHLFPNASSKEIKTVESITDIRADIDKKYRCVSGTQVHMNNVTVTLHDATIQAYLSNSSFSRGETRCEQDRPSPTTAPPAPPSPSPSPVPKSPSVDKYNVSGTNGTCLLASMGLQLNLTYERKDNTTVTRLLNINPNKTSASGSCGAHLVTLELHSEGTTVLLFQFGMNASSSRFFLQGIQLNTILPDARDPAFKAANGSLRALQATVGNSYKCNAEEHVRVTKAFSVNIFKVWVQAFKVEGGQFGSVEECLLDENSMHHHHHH

HCT116 huLAMP1 clones = test: In vitro ADCP with human macrophages, flow cytometry; assay type: cell-based
Method: ADCP activity was evaluated using HCT116 huLAMP1 clones with different LAMP1 antigen densities as target cells and human macrophages as effector cells. HCT116 huLAMP1 clones were labeled by PKH67 fluorescent dye, macrophages were labeled by CD14-PC7 fluorescent dye.
From isolated PBMC and according to Miltenyi monocytes cell isolation kit protocol (130-050-201, Miltenyi Biotech). Cells labeled by CD14-MicroBead were isolated using the positive selection program of the autoMACS Pro Separator (Milteny Biotech). Collected fraction (containing monocytes cells) were suspended in 13.6 mL of RPMI-1640 supplemented with 10% fetal bovine serum, washed once (centrifugation at 400 g for 10 min) and suspended at a final concentration of 10^6 cells/mL in 64 mL of RPMI-1640 supplemented with 10% fetal bovine serum, 1% of heat inactivated human serum (AB; #14-490E), 2 mM of L-glutamine and 50 ng/mL of GM-CSF (Miltenyi Biotech; #130-093-866).
The 64 mL of isolated monocytes were added to T75 flasks (NUNC; #I56472), 10 mL per flasks. Flasks were put in a 37° C. 5% CO2 incubator where cells were allowed to adhere for 8 days. […]
Samples were analyzed using a MACSQUANT apparatus. Phagocytosis was determined as double-labeled cells (PKH67 positive and PC7 positive cells).

- EC50 (nM) hLAMP1 [1]: No binding detected
B1: huMAb1_negA: negative control of huMAb1_1 with mutations VL1_36A-95A and VH1_101A (antibody, listed as Homo sapiens)
heavy: QVQLVQSGAEVKKPGSSVKVSCKASGYIFTNYNIHWVKKSPGQGLEWIGAIYPGNGDAPYSQKFQGKATLTADTSTSTTYMELSSLRSEDTAVYYCVRANWDVAFAYWGQGTLVTVSS[not shown - human IgG1 constant region with D265A (EU numbers)]
light: DIQMTQSPSSLSASVGDRVTITCKASQDIDRYMAWAQDKPGKAPRLLIHDTSTLQSGVPSRFSGSGSGRDYTLTISNLEPEDFATYYCLQYDNLATFGGGTKVEIKRTVAAPSVFIFPPSDEQLKSGTASVVCLLNNFYPREAKVQWKVDNALQSGNSQESVTEQDSKDSTYSLSSTLTLSKADYEKHKVYACEVTHQGLSSPVTKSFNRGEC
modifications: Antibody fragment
- in vitro ADCP (HCT116 huLAMP1 clones): did not induce any ADCP
